In the supplement of paper PMC8183993:
Where a name gives a salt, the structure may show the parent alone. ± gives the standard deviation of the averaged measurements. Whole data set: some 3,100 compounds, median “mean cytoplasmic OPP incorporation (global translation) relative to DMSO” near 100, cut for the lowest 2% near 56. The list shows a part of the results.

What follows are compounds tested on U2OS (assay: mean cytoplasmic OPP incorporation (global translation) relative to DMSO (% of DMSO); higher = more protein synthesis). Conditions: 10 µM; 24 h.
Description: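 Primary image-based screen in U2OS cells: compounds at 10 uM for 24 h, then a 1 h o-propargyl-puromycin (OPP) pulse, click labelling, and high-throughput microscopy. Mean cytoplasmic OPP intensity and nuclei count were normalised to DMSO wells within each plate (DMSO = 100) and averaged over triplicate plates.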
In the case of NC1CCN(c2cccc(Cl)n2)CC1, the “mean cytoplasmic OPP incorporation” value is reported as 113. In the case of CC(C)(OCc1nn(Cc2ccccc2)c2ccccc12)C(=O)O [Bindarit], the “mean cytoplasmic OPP incorporation” value is reported as 99.9. For Cc1ccc(S(=O)(=O)N[C@@H](Cc2ccccc2)C(=O)CCl)cc1, the “mean cytoplasmic OPP incorporation” value was 90.5. COc1cc(C(=O)NCc2ccc(OCCN(C)C)cc2)cc(OC)c1OC [Trimethobenzamide hydrochloride] was tested, and the “mean cytoplasmic OPP incorporation” value was 102. For CCCN1CCCC[C@H]1C(=O)Nc1c(C)cccc1C [Ropivacaine HCl], the “mean cytoplasmic OPP incorporation” value was 97.5. In the case of C[C@](N)(Cc1ccc(O)c(O)c1)C(=O)O [Methyldopa (L,-)], the “mean cytoplasmic OPP incorporation” value is reported as 108. With COC(=O)/C=C/c1cccc(N(Cc2ccc(-c3ccc(N(C)C)cc3)cc2)C(=O)C2CCCCC2)c1 [Fexaramine] the “mean cytoplasmic OPP incorporation” value was 101. c1cnc(N2CCN(Cc3ccc4c(c3)OCO4)CC2)nc1 [Piribedil] was tested, and the “mean cytoplasmic OPP incorporation” value was 97.1. With c1cnc(N2CCN(Cc3ccc4c(c3)OCO4)CC2)nc1 [Piribedil hydrochloride] the “mean cytoplasmic OPP incorporation” value was 92.5. For CCOC(=O)c1cnc2ccc(-c3cncc(NS(=O)(=O)c4ccccc4)c3)cn12, the “mean cytoplasmic OPP incorporation” value was 106. For Clc1ccc(C(Cn2ccnc2)OCc2ccsc2Cl)c(Cl)c1 (centres undefined) [Tioconazole], the “mean cytoplasmic OPP incorporation” value was 101. CCCC1C(=O)N2C(N(C)C)=Nc3ccc(C)cc3N2C1=O (centres undefined) [Azapropazone] was tested, and the “mean cytoplasmic OPP incorporation” value was 93.9. O=C(O)CNC(=O)C(CS)Cc1ccccc1 (racemic) [Thiorphan] was tested, and the “mean cytoplasmic OPP incorporation” value was 99.5. With O=C(O)CNC(=O)C(CS)Cc1ccccc1 (racemic) [DL-Thiorphan] the “mean cytoplasmic OPP incorporation” value was 101. In the case of COc1cc2c(cc1OC)CC(=O)N(CCCN(C)C[C@H]1Cc3cc(OC)c(OC)cc31)CC2 [Ivabradine HCl (Procoralan)], the “mean cytoplasmic OPP incorporation” value is reported as 106. In the case of C[C@H]1c2cccc(O)c2C(=O)C2=C(O)[C@]3(O)C(=O)C(C(N)=O)=C(O)[C@@H](N(C)C)[C@@H]3[C@@H](O)[C@@H]21 [Doxycycline hydrochloride], the “mean cytoplasmic OPP incorporation” value is reported as 107. With C[C@H]1c2cccc(O)c2C(=O)C2=C(O)[C@]3(O)C(=O)C(C(N)=O)=C(O)[C@@H](N(C)C)[C@@H]3[C@@H](O)[C@@H]21 [Doxycycline HCl] the “mean cytoplasmic OPP incorporation” value was 98.4. N[C@@H](CSC(c1ccccc1)(c1ccccc1)c1ccccc1)C(=O)O [S-Trityl-L-cysteine] was tested, and the “mean cytoplasmic OPP incorporation” value was 97.9. Cc1c(C(=O)NN2CCCCC2)nn(-c2ccc(Cl)cc2Cl)c1-c1ccc(Cl)cc1 was tested, and the “mean cytoplasmic OPP incorporation” value was 109. O=C(CCCN1C(=O)c2cccc3cccc(c23)C1=O)NO [Nullscript] was tested, and the “mean cytoplasmic OPP incorporation” value was 97.6. CSc1cc2c(cc1C(F)(F)F)N(C(=O)Nc1cccnc1)CC2 was tested, and the “mean cytoplasmic OPP incorporation” value was 101. In the case of O=C(O)C(=O)O.[NH-][C@@H]1CCCC[C@H]1[NH-].[Pt+2] [Oxaliplatin], the “mean cytoplasmic OPP incorporation” value is reported as 87.6. In the case of CC(C)C(=O)Oc1ccc(CO)cc1[C@H](CCN(C(C)C)C(C)C)c1ccccc1 [Fesoterodine fumarate (Toviaz)], the “mean cytoplasmic OPP incorporation” value is reported as 97.5. With Cc1nn(-c2ccccc2)c(C)c1C=NN1CCN(Cc2ccccc2)CC1 the “mean cytoplasmic OPP incorporation” value was 105. For Cc1cc2nc3c(=O)[nH]c(=O)nc-3n(C)c2cc1C=O, the “mean cytoplasmic OPP incorporation” value was 101. With Cc1ccc(NC(=O)c2ccc(CN3CCN(C)CC3)cc2)cc1Nc1nccc(-c2cccnc2)n1 [Imatinib (STI571)] the “mean cytoplasmic OPP incorporation” value was 124. With Cc1ccc(NC(=O)c2ccc(CN3CCN(C)CC3)cc2)cc1Nc1nccc(-c2cccnc2)n1 [Imatinib Mesylate] the “mean cytoplasmic OPP incorporation” value was 130. With Cc1ccc(NC(=O)c2ccc(CN3CCN(C)CC3)cc2)cc1Nc1nccc(-c2cccnc2)n1 [Imatinib] the “mean cytoplasmic OPP incorporation” value was 120. Cc1ccc(NC(=O)c2ccc(CN3CCN(C)CC3)cc2)cc1Nc1nccc(-c2cccnc2)n1 [Imatinib mesylate] was tested, and the “mean cytoplasmic OPP incorporation” value was 121 ± 11. In the case of N=C(N)c1ccc(N2CCN(C3CCN(CC(=O)O)CC3)CC2)cc1, the “mean cytoplasmic OPP incorporation” value is reported as 99.3. In the case of CCOC(=O)O[C@]1(C(=O)OCCl)CC[C@H]2[C@@H]3CCC4=CC(=O)C=C[C@]4(C)[C@H]3[C@@H](O)C[C@@]21C [Loteprednol etabonate], the “mean cytoplasmic OPP incorporation” value is reported as 122. In the case of CCc1cc2c(cc1N1CCC(N3CCOCC3)CC1)C(C)(C)c1[nH]c3cc(C#N)ccc3c1C2=O, the “mean cytoplasmic OPP incorporation” value is reported as 106. With COc1ccc2c(c1)c(CC(=O)O)c(C)n2C(=O)c1ccc(Cl)cc1 [Indomethacin] the “mean cytoplasmic OPP incorporation” value was 87.76 ± 0.71. Nc1nc2ccc(OC(F)(F)F)cc2s1 [Riluzole] was tested, and the “mean cytoplasmic OPP incorporation” value was 97.7. For Nc1nc2ccc(OC(F)(F)F)cc2s1 [Riluzole hydrochloride], the “mean cytoplasmic OPP incorporation” value was 95.4 ± 1.5. With CN1CCC(=C2c3ccccc3CCc3cccnc32)CC1 [Azatadine dimaleate] the “mean cytoplasmic OPP incorporation” value was 103. With CNC(=O)c1cc(Oc2ccc(NC(=O)Nc3cc(C(C)(C)C)nn3-c3ccc4ncccc4c3)c(F)c2)ccn1 [DCC-2036 (Rebastinib)] the “mean cytoplasmic OPP incorporation” value was 106. For C[C@]1(O)C[C@@H](c2nc(-c3ccc4ccc(-c5ccccc5)nc4c3)c3c(N)nccn32)C1 [Linsitinib (OSI-906)], the “mean cytoplasmic OPP incorporation” value was 104. C[C@]1(O)C[C@@H](c2nc(-c3ccc4ccc(-c5ccccc5)nc4c3)c3c(N)nccn32)C1 [OSI-906 (Linsitinib)] was tested, and the “mean cytoplasmic OPP incorporation” value was 104.
